From PMC5520057, “Modulation of nongenomic activation of PI3K signalling by tetramerization of N-terminally-cleaved RXRα” (Nature Communications, 2017)
No constants are given. Whether binding was seen depends on the method and setting. Binding seen in cells or lysates may run through a third protein. Some results given as binding are weak or reduced against the parent protein; the word gives no strength.

Sequences of proteins named here, by UniProt entry; tags and fusion partners are left off. A change or cut given only in a name is not applied to a line headed by its entry. Residues count along the entry.
UniProt P27986: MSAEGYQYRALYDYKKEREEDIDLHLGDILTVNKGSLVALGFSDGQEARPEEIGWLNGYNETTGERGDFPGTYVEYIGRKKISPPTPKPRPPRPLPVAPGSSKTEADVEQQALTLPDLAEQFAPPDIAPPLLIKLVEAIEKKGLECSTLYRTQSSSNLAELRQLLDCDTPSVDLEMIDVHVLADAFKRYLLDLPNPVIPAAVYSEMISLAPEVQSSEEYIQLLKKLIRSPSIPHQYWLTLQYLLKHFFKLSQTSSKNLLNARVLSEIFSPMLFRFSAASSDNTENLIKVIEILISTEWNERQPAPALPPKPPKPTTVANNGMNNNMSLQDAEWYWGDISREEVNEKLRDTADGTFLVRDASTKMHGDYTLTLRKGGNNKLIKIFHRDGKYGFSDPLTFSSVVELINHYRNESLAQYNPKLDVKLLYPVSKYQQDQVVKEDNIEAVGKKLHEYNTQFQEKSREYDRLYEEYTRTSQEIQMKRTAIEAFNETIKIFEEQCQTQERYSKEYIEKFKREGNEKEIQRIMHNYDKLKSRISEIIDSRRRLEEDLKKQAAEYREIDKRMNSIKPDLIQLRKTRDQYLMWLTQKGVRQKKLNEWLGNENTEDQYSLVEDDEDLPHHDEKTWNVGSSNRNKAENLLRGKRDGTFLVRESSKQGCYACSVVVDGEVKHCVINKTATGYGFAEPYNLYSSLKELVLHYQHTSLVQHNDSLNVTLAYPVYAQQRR
HA-p85α-BCR: residues 105-319 of P27986

Legend:
Myc-tRXRα/F313A (human) = Myc-tRXRα/F313A (human) (UniProt P19793); test: co-IP; transfected cells (HEK293T; HepG2 for Fig. 3e; A549 for Fig. 4h), with or without 9-cis-RA (10^-7 M), TNFα (10 ng/ml) or K-80003 (5 x 10^-6 M); lysis in 20 mM Tris pH 7.5, 150 mM NaCl, 1% Triton X-100; antibody 12 h at 4 °C, protein A-Sepharose, immunoblot
Myc-tRXRα/R316E (human) = Myc-tRXRα/R316E (human) (UniProt P19793); test: as above
Myc-tRXRα (human) [1] = biological target: Myc-tRXRα (human) (UniProt P19793); test: as above
HA-p85α-BCR = HA-p85α-BCR (UniProt P27986); test: as above
Myc-tRXRα (human) [2] = biological target: Myc-tRXRα (human) (UniProt P19793); test: cross-linking; cells (HepG2, HEK293T, MCF-7) transfected for 24 h, treated with 9-cis-RA (10^-7 M) and/or K-80003 (5 x 10^-6 M) for 6 h; lysates or fractions incubated with 1 mM BS3, SDS-PAGE and western blotting

| binding (Myc-tRXRα/F313A (human)) | binding (Myc-tRXRα/R316E (human)) | binding (Myc-tRXRα (human) [1]) | binding (HA-p85α-BCR) | binding (Myc-tRXRα (human) [2]) | Molecule |
| --- | --- | --- | --- | --- | --- |
| binds | no binding | binds | – | – | HA-p85α (from UniProt P27986 1-724) |
| – | – | – | binds | binds | Myc-tRXRα (domain or fragment, human, UniProt P19793 81-462, looked up, retinoid X receptor alpha lacking the N-terminal 80 amino acids (deletion of 60 plus an additional 20 amino acids); also called truncated RXRα; N-terminally-cleaved RXRα; source: HEK293T, HepG2, transfected, in lysate) TTPTLGFSTGSPQLSSPMNPVSSSEDIKPPLGLNGVLKVPAHPSGNMASFTKHICAICGDRSSGKHYGVYSCEGCKGFFKRTVRKDLTYTCRDNKDCLIDKRQRNRCQYCRYQKCLAMGMKREAVQEERQRGKDRNENEVESTSSANEDMPVERILEAELAVEPKTETYVEANMGLNPSSPNDPVTNICQAADKQLFTLVEWAKRIPHFSELPLDDQVILLRAGWNELLIASFSHRSIAVKDGILLATGLHVHRNSAHSAGVGAIFDRVLTELVSKMRDMQMDKTELGCLRAIVLFNPDSKGLSNPAEVEALREKVYASLEAYCKHKYPEQPGRFAKLLLRLPALRSIGLKCLEHLFFFKLIGDTPIDTFLMEMLEAPHQMT |
